Reference: the supplement of paper PMC8728848
Some of the results follow.

What was measured:
Assay in all cases: glycan array binding signal (z-score within array); higher = stronger binding
Conditions in all cases: glycan notation: IUPAC condensed, linker removed
GlcNAc(b1-3)Gal(b1-4)Glc = target: GlcNAc(b1-3)Gal(b1-4)Glc
Procedure, shortened: (§1)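 Glycan array data came from 3228 arrays in the Consortium for Functional Glycomics database, and only arrays with an available protein sequence were kept. Glycan names were put into IUPAC-condensed notation, and columns mapping to the same glycan were averaged. The binding signal is a within-array Z-score, averaged across arrays of one protein sequence run at different concentrations or buffers and across linkers. A negative Z-score can be read as non-binding.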

[1] = target: GlcNAc(b1-3)Gal(b1-4)GlcNAc
Procedure, shortened: as §1

[2] = target: GlcNAc(b1-3)Gal(b1-4)GlcNAc(b1-2)Man(a1-3)[GlcNAc(b1-3)Gal(b1-4)GlcNAc(b1-2)Man(a1-6)]Man(b1-4)GlcNAc(b1-4)GlcNAc
Procedure, shortened: as §1

[3] = target: GlcNAc(b1-3)Gal(b1-4)GlcNAc(b1-2)Man(a1-3)[GlcNAc(b1-3)Gal(b1-4)GlcNAc(b1-2)Man(a1-6)]Man(b1-4)GlcNAc(b1-4)[Fuc(a1-6)]GlcNAc
Procedure, shortened: as §1

[4] = target: GlcNAc(b1-3)Gal(b1-4)GlcNAc(b1-2)[GlcNAc(b1-3)Gal(b1-4)GlcNAc(b1-6)]Man(a1-6)[GlcNAc(b1-3)Gal(b1-4)GlcNAc(b1-2)Man(a1-3)]Man(b1-4)GlcNAc(b1-4)GlcNAc
Procedure, shortened: as §1

[5] = target: GlcNAc(b1-3)Gal(b1-4)GlcNAc(b1-3)Gal(b1-4)GlcNAc
Procedure, shortened: as §1

[6] = target: GlcNAc(b1-3)Gal(b1-4)GlcNAc(b1-3)Gal(b1-4)GlcNAc(b1-2)Man(a1-3)[GlcNAc(b1-3)Gal(b1-4)GlcNAc(b1-3)Gal(b1-4)GlcNAc(b1-2)Man(a1-6)]Man(b1-4)GlcNAc(b1-4)GlcNAc
Procedure, shortened: as §1

[7] = target: GlcNAc(b1-3)Gal(b1-4)GlcNAc(b1-3)Gal(b1-4)GlcNAc(b1-2)Man(a1-3)[GlcNAc(b1-3)Gal(b1-4)GlcNAc(b1-3)Gal(b1-4)GlcNAc(b1-2)Man(a1-6)]Man(b1-4)GlcNAc(b1-4)[Fuc(a1-6)]GlcNAc
Procedure, shortened: as §1

[8] = target: GlcNAc(b1-3)Gal(b1-4)GlcNAc(b1-3)Gal(b1-4)GlcNAc(b1-2)[GlcNAc(b1-3)Gal(b1-4)GlcNAc(b1-3)Gal(b1-4)GlcNAc(b1-6)]Man(a1-6)[GlcNAc(b1-3)Gal(b1-4)GlcNAc(b1-3)Gal(b1-4)GlcNAc(b1-2)Man(a1-3)]Man(b1-4)GlcNAc(b1-4)[Fuc(a1-6)]GlcNAc
Procedure, shortened: as §1

[9] = target: GlcNAc(b1-3)Gal(b1-4)GlcNAc(b1-3)Gal(b1-4)GlcNAc(b1-3)Gal(b1-4)GlcNAc(b1-2)Man(a1-3)[GlcNAc(b1-3)Gal(b1-4)GlcNAc(b1-3)Gal(b1-4)GlcNAc(b1-3)Gal(b1-4)GlcNAc(b1-2)Man(a1-6)]Man(b1-4)GlcNAc(b1-4)GlcNAc
Procedure, shortened: as §1

[10] = target: GlcNAc(b1-3)Gal(b1-4)GlcNAc(b1-3)Gal(b1-4)GlcNAc(b1-3)Gal(b1-4)GlcNAc(b1-2)Man(a1-3)[GlcNAc(b1-3)Gal(b1-4)GlcNAc(b1-3)Gal(b1-4)GlcNAc(b1-3)Gal(b1-4)GlcNAc(b1-2)Man(a1-6)]Man(b1-4)GlcNAc(b1-4)[Fuc(a1-6)]GlcNAc
Procedure, shortened: as §1

[11] = target: GlcNAc(b1-3)Gal(b1-4)GlcNAc(b1-3)Gal(b1-4)GlcNAc(b1-3)Gal(b1-4)GlcNAc(b1-2)[GlcNAc(b1-3)Gal(b1-4)GlcNAc(b1-3)Gal(b1-4)GlcNAc(b1-3)Gal(b1-4)GlcNAc(b1-6)]Man(a1-6)[GlcNAc(b1-3)Gal(b1-4)GlcNAc(b1-3)Gal(b1-4)GlcNAc(b1-3)Gal(b1-4)GlcNAc(b1-2)Man(a1-3)]Man(b1-4)GlcNAc(b1-4)[Fuc(a1-6)]GlcNAc
Procedure, shortened: as §1

[12] = target: GlcNAc(b1-3)Gal(b1-4)GlcNAc(b1-3)Gal(b1-4)GlcNAc(b1-3)Gal(b1-4)GlcNAc(b1-3)Gal(b1-4)GlcNAc(b1-2)Man(a1-3)[GlcNAc(b1-3)Gal(b1-4)GlcNAc(b1-3)Gal(b1-4)GlcNAc(b1-3)Gal(b1-4)GlcNAc(b1-3)Gal(b1-4)GlcNAc(b1-2)Man(a1-6)]Man(b1-4)GlcNAc(b1-4)GlcNAc
Procedure, shortened: as §1

[13] = target: GlcNAc(b1-3)Gal(b1-4)GlcNAc(b1-3)Gal(b1-4)GlcNAc(b1-3)Gal(b1-4)GlcNAc(b1-3)Gal(b1-4)GlcNAc(b1-2)Man(a1-3)[GlcNAc(b1-3)Gal(b1-4)GlcNAc(b1-3)Gal(b1-4)GlcNAc(b1-3)Gal(b1-4)GlcNAc(b1-3)Gal(b1-4)GlcNAc(b1-2)Man(a1-6)]Man(b1-4)GlcNAc(b1-4)[Fuc(a1-6)]GlcNAc
Procedure, shortened: as §1

[14] = target: GlcNAc(b1-3)Gal(b1-4)GlcNAc(b1-3)Gal(b1-4)GlcNAc(b1-3)Gal(b1-4)GlcNAc(b1-3)Gal(b1-4)GlcNAc(b1-2)[GlcNAc(b1-3)Gal(b1-4)GlcNAc(b1-3)Gal(b1-4)GlcNAc(b1-3)Gal(b1-4)GlcNAc(b1-3)Gal(b1-4)GlcNAc(b1-6)]Man(a1-6)[GlcNAc(b1-3)Gal(b1-4)GlcNAc(b1-3)Gal(b1-4)GlcNAc(b1-3)Gal(b1-4)GlcNAc(b1-3)Gal(b1-4)GlcNAc(b1-2)Man(a1-3)]Man(b1-4)GlcNAc(b1-4)[Fuc(a1-6)]GlcNAc
Procedure, shortened: as §1

[15] = target: GlcNAc(b1-3)Gal(b1-4)GlcNAc(b1-3)Gal(b1-4)GlcNAc(b1-3)GalNAc
Procedure, shortened: as §1

[16] = target: GlcNAc(b1-3)Gal(b1-4)GlcNAc(b1-3)GalNAc
Procedure, shortened: as §1

[17] = target: GlcNAc(b1-3)Gal(b1-4)GlcNAc(b1-3)[GlcNAc(b1-3)Gal(b1-4)GlcNAc(b1-3)]GalNAc
Procedure, shortened: as §1

[18] = target: GlcNAc(b1-3)Gal(b1-4)GlcNAc(b1-6)[Gal(b1-3)]GalNAc
Procedure, shortened: as §1

[19] = target: GlcNAc(b1-3)Gal(b1-4)GlcNAc(b1-6)[GlcNAc(b1-3)Gal(b1-3)]GalNAc
Procedure, shortened: as §1

[20] = target: GlcNAc(b1-3)Gal(b1-4)GlcNAc(b1-6)[GlcNAc(b1-3)]Gal(b1-4)GlcNAc
Procedure, shortened: as §1

GlcNAc(b1-3)GalNAc = target: GlcNAc(b1-3)GalNAc
Procedure, shortened: as §1

GlcNAc(b1-3)Man = target: GlcNAc(b1-3)Man
Procedure, shortened: as §1

[21] = target: GlcNAc(b1-3)[GlcNAc(b1-4)][GlcNAc(b1-6)]GlcNAc
Procedure, shortened: as §1

[22] = target: GlcNAc(b1-3)[GlcNAc(b1-6)]Gal(b1-4)GlcNAc
Procedure, shortened: as §1

[23] = target: GlcNAc(b1-3)[GlcNAc(b1-6)]GalNAc
Procedure, shortened: as §1

[24] = target: GlcNAc(b1-4)Gal(b1-4)GlcNAc
Procedure, shortened: as §1

GlcNAc(b1-4)GlcNAc = target: GlcNAc(b1-4)GlcNAc
Procedure, shortened: as §1

[25] = target: GlcNAc(b1-4)GlcNAc(b1-4)GlcNAc
Procedure, shortened: as §1

[26] = target: GlcNAc(b1-4)GlcNAc(b1-4)GlcNAc(b1-4)GlcNAc(b1-4)GlcNAc
Procedure, shortened: as §1

[27] = target: GlcNAc(b1-4)GlcNAc(b1-4)GlcNAc(b1-4)GlcNAc(b1-4)GlcNAc(b1-4)GlcNAc
Procedure, shortened: as §1

[28] = target: GlcNAc(b1-4)[GlcNAc(b1-6)]GalNAc
Procedure, shortened: as §1

[29] = target: GlcNAc(b1-6)Gal(b1-4)GlcNAc
Procedure, shortened: as §1

GlcNAc(b1-6)GalNAc = target: GlcNAc(b1-6)GalNAc
Procedure, shortened: as §1

[30] = target: GlcNAc6S(b1-3)Gal(b1-4)GlcNAc
Procedure, shortened: as §1

Kdn(a2-3)Gal(b1-3)GalNAc = target: Kdn(a2-3)Gal(b1-3)GalNAc
Procedure, shortened: as §1

Kdn(a2-3)Gal(b1-3)GlcNAc = target: Kdn(a2-3)Gal(b1-3)GlcNAc
Procedure, shortened: as §1

B1: PX9961U-pdi-543-24-543 (Parabacteroides distasonis) (protein)
chain: EEPVGEFLPGQVESEENIEGIVTGAYAVLDGYYASDAINSGCSNWQFGDVVSDDAYKGGGGTGDQNQIHLMEIFNANPTGIDFEARWAALYEGIKRCNQAIRLLNGSEVKNKEQRLAEMRFLRGHYYFNLKIIYNQIPWIDETLVDPNEYNKKSNIEFSSDQLWEKILEEFSAAYKVLPESQADYGRPTKMAARAYMAKVYLYQSKWKECLEACDEVIQSGKYELFPDFRNVFLPENDNCSEIIFAIQLSINDGSPNNENGSYGDRLLPPGGPYPVYGFLRPTQNLVNAYKTDVKGLPYNDGKDVSENDYVDVRLDHTLARPNIPFMDVQLYDWTPREASVYGPYSPKKRLVSLNSTYYSPIWPYVNALNFYVIRYADLLLWRAEAAIETGDLETGRKYINMIRERAKNTQHVKTMDQSQDAANYKVGVYDEPFKSKNEAVQALRMERRLEMAHEGIRFFDLVRWGVADEVINAYIAKEKVFRSHLQNAHFVKGKHEYFPIPQSMIDICGTEVMKQNPGY
GlcNAc(b1-3)Gal(b1-4)Glc
  glycan array binding signal (z-score): -0.369
[1]
  glycan array binding signal (z-score): -0.432
[2]
  glycan array binding signal (z-score): -0.362
[3]
  glycan array binding signal (z-score): 0.498
[4]
  glycan array binding signal (z-score): -0.096
[5]
  glycan array binding signal (z-score): -0.408
[6]
  glycan array binding signal (z-score): 0.226
[7]
  glycan array binding signal (z-score): -0.248
[8]
  glycan array binding signal (z-score): -0.247
[9]
  glycan array binding signal (z-score): -0.357
[10]
  glycan array binding signal (z-score): -0.256
[11]
  glycan array binding signal (z-score): -0.308
[12]
  glycan array binding signal (z-score): -0.418
[13]
  glycan array binding signal (z-score): -0.064
[14]
  glycan array binding signal (z-score): -0.227
[15]
  glycan array binding signal (z-score): -0.417
[16]
  glycan array binding signal (z-score): -0.309
[17]
  glycan array binding signal (z-score): -0.147
[18]
  glycan array binding signal (z-score): -0.373
[19]
  glycan array binding signal (z-score): -0.228
[20]
  glycan array binding signal (z-score): -0.448
GlcNAc(b1-3)GalNAc
  glycan array binding signal (z-score): -0.325
GlcNAc(b1-3)Man
  glycan array binding signal (z-score): -0.374
[21]
  glycan array binding signal (z-score): -0.405
[22]
  glycan array binding signal (z-score): -0.401
[23]
  glycan array binding signal (z-score): -0.366
[24]
  glycan array binding signal (z-score): -0.381
GlcNAc(b1-4)GlcNAc
  glycan array binding signal (z-score): 0.109
[25]
  glycan array binding signal (z-score): -0.444
[26]
  glycan array binding signal (z-score): -0.391
[27]
  glycan array binding signal (z-score): -0.419
[28]
  glycan array binding signal (z-score): -0.436
[29]
  glycan array binding signal (z-score): -0.084
GlcNAc(b1-6)GalNAc
  glycan array binding signal (z-score): 0.008
[30]
  glycan array binding signal (z-score): 0.286
Kdn(a2-3)Gal(b1-3)GalNAc
  glycan array binding signal (z-score): 0.638
Kdn(a2-3)Gal(b1-3)GlcNAc
  glycan array binding signal (z-score): -0.426
